From the supplement of paper PMC12632987
The full ranking holds about 4,500 sequences; the median of “median log2 fold change of GCK-ALFA target abundance (FLAG IP / Myc IP barcode read proportion)” is about 0.078, and the lowest 2% start at about -0.6. The list shows a part of the results.

B1: GBRAP_11_2808 (protein)
chain: KKEELEKAAKLAKEAAEAVEKLLKEGVDNEELLEKIEKLLEELEKLAKEYLDKGSQKLVEIAKELLKKAREDPENAKEYLEQLLATLRVLEGNVLLEIEE
B2: GBRAP_42_5728 (protein)
chain: MYLVNLEVYVETKEEAEKAIKIWRELNEKYEKEYGIIINLTIVGPEETEEIAEEAEKESEEKAKKATKESDWVVVASSADEVEKAINIAVDLALEERKEE
B3: GBRAP_83_6931 (protein)
chain: KEKITVAGAGDSIPEAFAAAIDLHKEDGYEVDLELIARREDLPTILAEFERVAAAGVDTDLDILLEGATPEEAAALQARLEAIAARHGVDVDVTVTVVEP
B4: GBRAP_83_6907 (protein)
chain: AEKIAVAAPADHAVEMADAVIDLTKEEGYEVEVEILATKEEKEKVKEAVEKLAKAGVETEVTVYLFGATEEEAEELKKELEEIAKKYGTNIKINVELIEE
B5: GBRAP_160_4586 (protein)
chain: SEELEKAKKIVEEEFEEAKEMIKGQTAEQRAVIVLGAGGRIIMELEELEEATDELLDFVDEVFDELAATILANPDLTDEELVALIDEAREKILEALEKHF
B6: GBRAP_139_3720 (protein)
chain: SAKEKVIEEVKKIVKENKDNLEKLAKLVAEKIAEVDDETALEIARAAAEELKDKSWEEFEEFLELVEKELKKLGFDEDRVLAIAGEFEAVRAKIELAKLE
B7: GBRAP_52_5898 (protein)
chain: AKERLVELLLAAARAVEAGDEERAKALIREAIKEGAKLTPEEVREAVEEAAKRLAGLPQEVKERLLELVLEVYDEDDDLTDEERAVLGEIAAALAKLILA
B8: GBRAP_11_2690 (protein)
chain: KKEKLKEIAELAEKLAEVLAELLEVGVDNEELLEEAERLLEELEKLVEEHADEGMKKLARILREEFEKALEDPENAEEHVQEALAIARVLAGNALLEIEE
B9: GBRAP_128_3233 (protein)
chain: MPEELKAKVEALIDTIINGDVAEAAAATAELVALMGEVSLEEAEEIAKMVIEALKKLTVEKLETVADTIEANRGTLDPEKQNLANDVLIEALNLAEEKEE
B10: GBRAP_160_4753 (protein)
chain: SEELKKLKEEVKEIFEEGIKMLKEVPASEAPTVLRGTMGEVLMLVFSSEAASDELEEKVGEIADEAEKKADANADAPVEYHIELLKEAEKKVLETIEKEI
B11: GBRAP_160_4249 (protein)
chain: SERIEEIREEIEEEAEVLLEALLESPRSQWPAFARAMAGDIVQIVIEDPLATDEMEEKVDELAEEMAERLVAAADASPEELRALLREGVERIVKAIEELL
B12: GBRAP_42_5727 (protein)
chain: KYKVTLELYVETKEELERAVEIWKELNKKALEEYDIIIELRVAAPEEAEELAEEVNKESEELAKEATEESDWVVVAGSADQVEDAIKAAVDLALEEIKER
B13: GBRAP_128_3201 (protein)
chain: VSPEAVEELRKLAEEVIKTKTDEAIKEFAEAVAKALKAGKIDLDTLEEIVRELGKGLTPDDIAKAADALDEALADVGAEARAVALGELGEEIMEKEEEEE
B14: GBRAP_11_2608 (protein)
chain: KKEILKELAELAEKAAETVERLLEVGVDDEELLKEIRELIEKLAELVEKHGDEADKTDVEVIRELWEEALRDPENQREYLEQLLAALRVFSGNYLLEIEE
B15: GBRAP_160_4140 (protein)
chain: KEELEKLIKEIREIAEEAIELIKDESREEAKTIAKVALGEIVMLVMSNEAVSEETEEKVGEIMREAEEELEENEDATNEEIIELLRKAAEEVIKILKEEI
B16: GBRAP_128_3307 (protein)
chain: MDEELLEEARELIERLKEADEEEAAELVREIAELLEKATPEEREEIAELFEEALKELSAEKLDVVADTLRELIPKATPETANVLADLQVEALNLAEEKEE
B17: GBRAP_139_3763 (protein)
chain: DETEKKVEEARELTKKLIEGDEEAAKELAKLAKSVDDETLRKIADAIREALKGQDPDTIAKVEDLLEKEMKEVGASEETILLISGAITEAEAEAIVAELA
B18: GBRAP_52_5907 (protein)
chain: MKEELEKILNEIIEAVKAGKLEEARKIARELAEKYDDETLEEFIELFAEMVLEAPEEDLPYYWKAAEILAEEFEREGKDEVLADLLLSRTAAAIYEKLQR
B19: GBRAP_84_7002 (protein)
chain: ASEEEILKITKEILKKSSIKLKQLLLTYLILKNVNKAATLALNDLMKRDIEAAAEALDLATEAYEEGKEEEVKKELLEEAKKEGEEVYKLVEELIKAIES
B20: GBRAP_84_7005 (protein)
chain: SREEEIVEITAEILEKASIETKALLLTYLILKNANKAATLALNDLLEEDPEAAVEALDRATEAYEEGKEEEVEKELLEKAKEEGEELAELVERLLELLKE
B21: GBRAP_52_6178 (protein)
chain: MRERMRKLVEEIVALARAGDEEGAKKLIRELAKTLNDEELKIFADEFARLVLASPLEELDLLADLLDTIEEILEEEGVDPRIIAYIRGKFATAAYQREQA
B22: GBRAP_52_6256 (protein)
chain: MEEKAKEVAEEIYKLVLAGKLEEARKKAREFVESSNEEELELFIKEVRELILKSDKSDLEALEKMVEIVSEALEEAGKPEELVSLLEAEGYGAIYELEQR
B23: GBRAP_39_5657 (protein)
chain: EEEEENELEFSYLVALAVKYQVERGISTEELIAEGLARLRRLAAEHPEIRELVERLIELAESGDEETKLAAAGIALLAEEGTPLEEIREHIERFIAYLES
B24: GBRAP_184_5207 (protein)
chain: KIKEVTIEFENLEELKKKLEELKKEVEGFKGTLYIIVKAKEITLEMAEEILNMLKEIKENGYATEIIVDVEGEVSEEVLDKLLNGSKEIGVKLTVALSEE
B25: GBRAP_78_6655 (protein)
chain: KVEELIDKSMEYLDKASKLTKELPEEDRNELMDLLVEAATYLLESEENNFDLENLKKALEKLKKALEYAKSLNTPVAKKIAEELEKAIKYLEEAIKLLEE
B26: GBRAP_83_6879 (protein)
chain: AEEIAVAGPASRHEEIADAVIDLTKEEGYDVVVELLVTPEELEDVLALAERLAAAGVDVELEVHGVGVTPEQAAALEARLKAIFAAAGVNVTVTVRLEEP
B27: GBRAP_52_6381 (protein)
chain: MVEEAYEILRKAIELIIKGGPKEEVEELAKKLSEYSDETLIKAAELLAEEILKLSKEEAEKVLDATFELGDILEEEGVPEETVSYIEAIIGKAAYERLQK
B28: GBRAP_137_3621 (protein)
chain: KRVTITFYEEDGTLIAEIVADTSVDREALLALVEEVAAETGVQVVVAESEPDEPTVIYLVGAPEAVIAAVRRLIERIRAELGVEVELRSEGAEAAVAAVE
B29: GBRAP_83_6930 (protein)
chain: KEEIVVVGNSDNIEEAFDAAIDLSKEDGYKVILEIIITPEAFPKLLKAFKKLAEAGIDAEIHIVAEGATEEEAEELKKELEKIAKEAGVKVKVEVTLLEP

The binders below were run against GABARAP, O95166 (assay: median log2 fold change of GCK-ALFA target abundance (FLAG IP / Myc IP barcode read proportion) (log2 ratio); each designed protein is fused to an ALFA-tag nanobody in HEK293 cells to bring the named protein to FLAG-tagged glucokinase (GCK); Myc marks an untargeted standard; higher = target protein stabilised (more abundant)). Details: target protein: 3xFLAG-MCP-GCK-ALFA reporter; HEK293 landing pad (RPLP).
GABARAP, O95166, sequence (O95166 whole entry, the tested form may be a part): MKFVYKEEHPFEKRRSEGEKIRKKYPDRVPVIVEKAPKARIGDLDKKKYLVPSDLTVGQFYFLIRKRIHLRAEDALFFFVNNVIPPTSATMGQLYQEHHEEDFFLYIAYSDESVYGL
In short: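 Sequencing of reverse-transcribed, amplified circular RNA barcodes from anti-FLAG and anti-Myc immunoprecipitates provided the readout for an ALFA-nanobody-fused binder library recombined into HEK293 landing-pad cells. Those cells were induced with 2 μg mL^−1 doxycycline, transfected with a plasmid expressing a FLAG-tagged target and a Myc-tagged standard, and lysed after 48 h. Target abundance is the per-binder median log2 ratio of FLAG to Myc barcode read proportions. Only barcodes at a proportion of ≥10^−7 in both replicates and binders with ≥3 barcodes per replicate were kept, with a 10^−6 pseudocount added before the two replicates were pooled.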
B1 was tested, and the “median log2 fold change” value was 0.308.
For B2, the “median log2 fold change” value was 0.212.
With B3 the “median log2 fold change” value was 0.0959.
B4 was tested, and the “median log2 fold change” value was 0.21.
In the case of B5, the “median log2 fold change” value is reported as -0.128.
In the case of B6, the “median log2 fold change” value is reported as 0.00762.
For B7, the “median log2 fold change” value was -0.116.
For B8, the “median log2 fold change” value was 0.0639.
For B9, the “median log2 fold change” value was 0.352.
B10 was tested, and the “median log2 fold change” value was 0.295.
With B11 the “median log2 fold change” value was -0.175.
For B12, the “median log2 fold change” value was 0.485.
B13 was tested, and the “median log2 fold change” value was 0.315.
With B14 the “median log2 fold change” value was 0.145.
With B15 the “median log2 fold change” value was 0.101.
For B16, the “median log2 fold change” value was 0.0926.
With B17 the “median log2 fold change” value was 0.227.
For B18, the “median log2 fold change” value was -0.881.
For B19, the “median log2 fold change” value was -0.516.
With B20 the “median log2 fold change” value was -0.259.
For B21, the “median log2 fold change” value was -0.00387.
B22 was tested, and the “median log2 fold change” value was 0.0683.
For B23, the “median log2 fold change” value was 0.168.
B24 was tested, and the “median log2 fold change” value was -0.166.
B25 was tested, and the “median log2 fold change” value was 0.0181.
With B26 the “median log2 fold change” value was 0.0381.
With B27 the “median log2 fold change” value was 0.0556.
In the case of B28, the “median log2 fold change” value is reported as -0.19.
With B29 the “median log2 fold change” value was -0.159.
